Test results published in PubChem BioAssay AID485294 (National Center for Advancing Translational Sciences (NCATS), 2010).
About 150 (0.041%) of roughly 370,000 compounds were called active. Inconclusive results, whose numbers are uncertain, are shown with a selection of clear calls. Calls come from the whole dose curve; as a rule, active = well fitted inhibition curve with a large enough effect; inconclusive = small, poorly fitted or top-dose-only effect; inactive = flat fitted curve, though single readings scatter. Potencies of inconclusive entries are left out as doubtful fits.

Molecular target: Beta-lactamase (Escherichia coli (strain K12)) (UniProt P00811)
Chain of UniProt P00811 (P00811 whole entry, looked up): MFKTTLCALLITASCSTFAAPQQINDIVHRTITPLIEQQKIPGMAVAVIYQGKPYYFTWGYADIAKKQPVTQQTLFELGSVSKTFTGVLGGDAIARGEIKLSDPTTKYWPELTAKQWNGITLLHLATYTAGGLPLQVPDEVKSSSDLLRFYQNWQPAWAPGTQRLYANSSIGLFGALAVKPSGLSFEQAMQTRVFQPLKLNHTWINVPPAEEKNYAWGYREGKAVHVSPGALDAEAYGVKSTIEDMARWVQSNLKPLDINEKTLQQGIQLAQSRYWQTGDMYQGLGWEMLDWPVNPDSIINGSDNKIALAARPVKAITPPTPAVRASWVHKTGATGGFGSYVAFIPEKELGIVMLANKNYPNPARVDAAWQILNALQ
Assay: qHTS Inhibitors of AmpC Beta-Lactamase (assay with detergent); note: nearly all actives have a fitted effect of over 25% in size
Conditions: AmpC hydrolysis of nitrocefin, absorbance 480 nm, 0.01% Triton; series mostly up to 114 µM
Procedure, shortened: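 AmpC (5.3 nM in the dispensed reagent) in 20 mM phosphate pH 7.0 with 0.01% (detergent screen) or 0.0001% Triton X-100 was preincubated with compounds for 15 min at room temperature. Nitrocefin was then added from an 800 uM solution, and hydrolysis was followed at 480 nm.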
Potency is the fitted concentration of half-maximal effect; tags give direction and shape of the fitted curve.

| SMILES | Potency |
| --- | --- |
| COc1cc(-c2cc(N)n(S(=O)(=O)c3ccc(F)cc3)n2)cc(OC)c1OC | inconclusive [inhibitor, full curve] |
| O=C(O)C1C2C=CC(O2)C1C(=O)Nc1ccc(S(=O)(=O)Nc2ccccc2)cc1 (centres undefined) | inactive |
| Nc1nc(N)nc(-c2cc(O)ccc2O)n1 | inactive |
| O=C(N/N=C/c1cccc(NC(=O)c2ccc(Cl)cc2)c1)c1ccc(O)cc1 | inconclusive [inhibitor, partial curve] |
| COc1ccc(N2C(=O)/C(=C/c3cccnc3)NC2=S)cc1 | inconclusive [inhibitor, full curve, poor fit] |
| Cc1cccc(C(=O)Nc2ccc(NC(=O)CN3CCOCC3)cc2)c1 | inconclusive [inhibitor, single point] |
| COc1ccc(-c2nc3cc(C)ccn3c2NCc2ccc3c(c2)OCO3)cc1 | inactive |
| N#Cc1c(/N=C/c2ccc(Br)s2)sc2c1CCC2 | inactive |
| COc1cc(S(=O)(=O)NCCOC23CC4CC(CC(C4)C2)C3)c(OC)cc1Cl | inconclusive [inhibitor, partial curve, poor fit] |
| CCc1c(C)nc(SCC(=O)CC(=O)OC(C)C)c(C#N)c1C | inconclusive [inhibitor, full curve] |
| S=c1[nH]nc(C2CCCCC2)n1/N=C/c1ccccc1Cl | inconclusive [inhibitor, full curve, poor fit] |
| CCOC(=O)C1CCCN(C(=O)c2cc3nc(-c4ccc5c(c4)OCO5)cc(C(F)(F)F)n3n2)C1 (centres undefined) | inactive |
| CN(Cc1ccccc1)C(=S)NC(=O)c1ccc(-c2ccccc2)cc1 | inactive |
| Nc1nc(-c2c[nH]c3ccccc23)cs1 | inconclusive [inhibitor, single point] |
| Cc1nnc(SCC(=O)N2CCc3ccccc3C2)n1-c1ccccc1 | inconclusive [inhibitor, full curve, poor fit] |
| Cc1ccccc1CC(=O)NCC1CCCCC1 | inactive |
| COc1ccccc1Oc1c(C)oc2c(CN(C)C)c(O)ccc2c1=O | inconclusive [inhibitor, full curve] |
| COc1ccc(-c2cc(CCCC(=O)NCc3ccccn3)no2)cc1 | inactive |
| COc1ccc(NC(=O)c2cccc(NC(=O)c3ccco3)c2)c(OC)c1 | inconclusive [inhibitor, full curve, poor fit] |
| COc1cc(C(=O)NCC(=O)NCCN2C(=O)S/C(=C\c3ccc4c(c3)OCO4)C2=O)cc(OC)c1OC | inconclusive [inhibitor, single point] |
| CCc1nnc(NC(=O)c2nc(S(=O)(=O)Cc3ccc(C)cc3)ncc2Cl)s1 | inactive |
| O=C(NNC(=O)C12CC3CC(CC(Cl)(C3)C1)C2)c1ccncc1 | inconclusive [inhibitor, single point] |
| COc1cccc(NC(=O)c2ocnc2C)c1 | inactive |

| SMILES | Potency |
| --- | --- |
| CC(C)CNS(=O)(=O)c1ccc(CCC(=O)N2CCN(Cc3ccc4c(c3)OCO4)CC2)cc1 | inactive |
| COc1ccc(CN(C(=O)c2snc(C(N)=O)c2N)C(C(=O)NC2CCCC2)c2cc(OC)ccc2OC)cc1 (centres undefined) | inconclusive [inhibitor, full curve, poor fit] |
| Cc1ccc(C(=O)NC(C#N)=C(Cl)Cl)cc1 | inactive |
| CCN(c1cccc(C)c1)S(=O)(=O)c1ccc(N2CCCCS2(=O)=O)cc1 | inactive |
| CC(C)(C)C(=O)Cn1ncc(N2CCOCC2)c(Br)c1=O | inconclusive [inhibitor, full curve, poor fit] |
| c1ccc(-c2ccc(-c3nc(-c4ccncc4)no3)cc2)cc1 | inconclusive [inhibitor, partial curve, poor fit] |
| CN(CC(=O)Nc1ccc(Br)cc1)Cc1ccccc1 | inconclusive [inhibitor, partial curve, poor fit] |
| COc1ccccc1C(=O)Oc1c(Sc2ccccc2)c(C)nn1C(C)(C)C | inactive |
| Cc1ccc2[nH]c3c(=O)n(N)c(C)nc3c2c1 | inactive |
| COc1ccc(C(=O)Nc2ccccc2C(=O)N2CCOCC2)cc1 | inconclusive [inhibitor, full curve, poor fit] |
| CCC(C)(C)n1nnnc1C(c1ccccc1F)N1CCC(C(N)=O)CC1 (centres undefined) | inconclusive [inhibitor, partial curve, poor fit] |
| O=C(Nc1ccccc1)O/N=C/c1ccncc1 | inactive |
| COc1ccc(NC(=O)c2ccc3c(c2)CCN3S(=O)(=O)c2ccccc2)c(OC)c1 | inconclusive [inhibitor, full curve, poor fit] |
| CCN1C(=O)C(O)(CC(=O)c2ccc3c(c2)OCCO3)c2ccccc21 (centres undefined) | inconclusive [inhibitor, full curve, poor fit] |
| O=C(CSc1nc2ccsc2c(=O)n1NC(=O)c1ccccc1)Nc1nccs1 | inactive |
| CCOC(=O)Cc1csc(NC(=O)c2cccc(OC)c2)n1 | inactive |
| CN(C)C(=O)c1ccc(-n2nc(C(F)(F)F)c3c2CCCC3)cc1 | inconclusive [inhibitor, full curve] |
| N#Cc1ccc(/C=N/N=C(N)N)cc1 | inactive |
| COc1ccc(CN(C)CC(=O)Nc2c(C)cccc2C)c(OC)c1 | inactive |
| COc1ccc2ncn(-c3ccccc3)c2c1 | inactive |
| S=C(Nc1ccccc1Oc1ccccc1)Nc1cccc(Cl)c1Cl | inconclusive [inhibitor, single point] |
| CC(c1ccccc1)N1CCn2c(nc3cc(NC(=O)NC4CCCCC4)ccc32)C1 (centres undefined) | inconclusive [inhibitor, full curve, poor fit] |
| Cc1ccc(NC(=O)CN2C(=O)C3CC=CCC3C2=O)cc1S(=O)(=O)N1CCOCC1 (centres undefined) | inconclusive [inhibitor, single point] |

| SMILES | Potency |
| --- | --- |
| CC1CN(c2ccc(Cl)cc2)c2nc3c(c(=O)n(CC(=O)O)c(=O)n3C)n2C1 (centres undefined) | inactive |
| Cn1ccsc1=NC(=O)c1ccccc1F | inconclusive [inhibitor, full curve] |
| CC(C)CCn1c(=O)c2cccnc2n(CC(=O)Nc2ccc(F)cc2)c1=O | inactive |
| COc1cc(C(=O)NC(C)c2cc(C)ccc2C)ccc1OCC(=O)N1CCOCC1 (centres undefined) | inconclusive [inhibitor, full curve, poor fit] |
| CC(C)NC(=O)CSc1nc2ccccc2n1CC(=O)N1CCc2ccccc21 | inconclusive [inhibitor, partial curve, poor fit] |
| Cc1cc(C)c2nc(N(CCN(C)C)C(=O)c3ccc4ccccc4c3)sc2c1 | inconclusive [inhibitor, full curve, poor fit] |
| c1ccc2[nH]c(SCCN3CCOCC3)nc2c1 | inactive |
| Cc1c(NC(=O)CN2CCN(c3ccc(F)cc3)CC2)c(=O)n(-c2ccccc2)n1C | inconclusive [inhibitor, single point] |
| CC(C)CC(=O)N1CCN(C(=O)CCC2CCCC2)CC1 | inconclusive [inhibitor, partial curve, poor fit] |
| Cc1ccc(-c2nnn(CC(=O)N(c3cccc(F)c3)C(C(=O)NC3CCCC3)c3ccco3)n2)o1 (centres undefined) | inconclusive [inhibitor, full curve, poor fit] |
| Cc1cccc(-c2nc(CS(=O)CC(=O)NCC3CCCO3)c(C)o2)c1 (centres undefined) | inconclusive [inhibitor, single point] |
| Clc1ccc(-c2nc3cnccn3c2Nc2ccc3c(c2)OCO3)cc1 | inconclusive [inhibitor, full curve, poor fit] |
| Nc1ccc(C(=O)N/N=C/c2cn(Cc3ccccc3)c3ccccc23)cc1 | inconclusive [inhibitor, full curve] |
| Cc1cccc(C)c1NC(=O)COC(=O)c1c(C)nn(-c2ccccc2)c1C | inconclusive [inhibitor, partial curve, poor fit] |
| COc1ccc(-n2c(SCC(=O)Nc3cc(C)on3)nc3c([nH]c4ccccc43)c2=O)cc1OC | inconclusive [inhibitor, full curve, poor fit] |
| CC(C)C(=O)NC(=S)Nc1ccccc1C(=O)Nc1ccccc1 | inconclusive [inhibitor, full curve, poor fit] |
| CN(C)CCCN1C(=O)C(=O)/C(=C(/O)c2ccccc2)C1c1ccccn1 (centres undefined) | inconclusive [inhibitor, full curve, poor fit] |
| Cc1cccc(NC(=O)CN2CCN(CC(=O)NCc3ccc(Cl)cc3Cl)CC2)c1C | inconclusive [inhibitor, full curve, poor fit] |
| Cc1ccccc1CC1(CO)CCCN(Cc2ccccc2Cl)C1 (centres undefined) | inconclusive [inhibitor, full curve, poor fit] |
| Fc1ccccc1/C=N/Nc1ncnc2nc[nH]c12 | inconclusive [inhibitor, full curve, poor fit] |
| Cc1ccc(OCC(=O)NC(=S)Nc2ccc(S(=O)(=O)Nc3cc(C)on3)cc2)c(Br)c1 | inactive |
| Cn1c(=O)oc2cc(S(=O)(=O)N3CCCC(C(=O)N4CCn5c4nc4ccccc45)C3)ccc21 (centres undefined) | inconclusive [inhibitor, full curve, poor fit] |
| Cn1ncnc2c(=O)n(C)c(=O)nc1-2 | inconclusive [inhibitor, full curve] |
